The source of these data is paper PMC12820563, “FoxP3 forms a head-to-head dimer in vivo and stabilizes its multimerization on adjacent microsatellites”.

The list shows a part of the results.

The assay has as its target T1, MBP-FoxP1dN (Mus musculus, UniProt P58462 326-579).
T1 sequence: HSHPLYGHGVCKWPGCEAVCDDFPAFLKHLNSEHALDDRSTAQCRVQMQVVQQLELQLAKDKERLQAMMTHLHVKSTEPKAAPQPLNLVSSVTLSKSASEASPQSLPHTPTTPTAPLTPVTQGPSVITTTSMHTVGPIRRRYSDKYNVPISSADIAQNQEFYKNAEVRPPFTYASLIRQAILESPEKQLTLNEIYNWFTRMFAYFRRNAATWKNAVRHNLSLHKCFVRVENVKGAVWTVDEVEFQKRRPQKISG
As to the kind of experiment: PD-seq (MBP pull-down with sequencing); 20 mM Tris-HCl pH 7.5, 100 mM NaCl, 1.5 mM MgCl2, 0.4 uM protein, 0.1 uM dsDNA library, 30 min, room temperature, amylose pull-down; high values mean tight binding. As to conditions: protein: recombinant; tags: His6-MBP; chain copies: 2; dsDNA, one strand shown. The gist of the method:
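Amylose resin was used to capture complexes formed during 30 min at room temperature in Tris pH 7.5 buffer with NaCl and MgCl2 between 0.4 µM His6-MBP-tagged mouse FoxP3 or FoxP1 fragment lacking the N-terminus, expressed in E. coli, and 0.1 µM Klenow-filled double-stranded degenerate DNA library. After three washes, the DNA was released with proteinase K, barcoded by PCR and sequenced on Illumina. Binding is pooled-replicate reads-per-million enrichment, pull-down over input.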
As for “GATGATTGTTCTCCCAGCTGATGAATTTCGAATATCGAGTAAACAAATTTTCCTAATCTTTCTGTTCAAGCGCCATCTAC”, the binding signal is 0.969 RPM ratio (pull-down/input).
Take “GATGATTGTTCTCCCAGCTGATGAATTTCCATGCTCGAGTAAACAAATTTTCCTAATCTTTCTGTTCAAGCGCCATCTAC”: the binding signal is 0.828 RPM ratio (pull-down/input).
For “GATGATTGTTCTCCCAGCTGATGAATTATGCAAATCGAGTAAACAAATTTTCCTAATCTTTCTGTTCAAGCGCCATCTAC”, the binding signal is 1.33 RPM ratio (pull-down/input).
In the case of “GATGATTGTTCTCCCAGCTGATGAATTAGTCTAATCGAGTAAACAAATTTTCCTAATCTTTCTGTTCAAGCGCCATCTAC” it was 1.22 RPM ratio (pull-down/input).
Regarding “GATGATTGTTCTCCCAGCTGATGAATTCCTAACCTCGAGTAAACAAATTTTCCTAATCTTTCTGTTCAAGCGCCATCTAC”, the binding signal is 0.838 RPM ratio (pull-down/input).
With “GATGATTGTTCTCCCAGCTGATGAATTAGGCGCGTCGAGTAAACAAATTTTCCTAATCTTTCTGTTCAAGCGCCATCTAC”, the binding signal was 1.03 RPM ratio (pull-down/input).
Regarding “GATGATTGTTCTCCCAGCTGATGAATTGGCTGAGTCGAGTAAACAAATTTTCCTAATCTTTCTGTTCAAGCGCCATCTAC”, the binding signal was 0.812 RPM ratio (pull-down/input).
Regarding “GATGATTGTTCTCCCAGCTGATGAATTTTAACACTCGAGTAAACAAATTTTCCTAATCTTTCTGTTCAAGCGCCATCTAC”, the binding signal was 1 RPM ratio (pull-down/input).
On to “GATGATTGTTCTCCCAGCTGATGAATTTATCAGTTCGAGTAAACAAATTTTCCTAATCTTTCTGTTCAAGCGCCATCTAC”, for which the binding signal was 1.17 RPM ratio (pull-down/input).
For “GATGATTGTTCTCCCAGCTGATGAATTATGATTGTCGAGTAAACAAATTTTCCTAATCTTTCTGTTCAAGCGCCATCTAC”, the binding signal was 1.45 RPM ratio (pull-down/input).
As for “GATGATTGTTCTCCCAGCTGATGAATTCTAGCAATCGAGTAAACAAATTTTCCTAATCTTTCTGTTCAAGCGCCATCTAC”, the binding signal is 1.16 RPM ratio (pull-down/input).
In the case of “GATGATTGTTCTCCCAGCTGATGAATTCGCGTCATCGAGTAAACAAATTTTCCTAATCTTTCTGTTCAAGCGCCATCTAC”, the binding signal was 0.994 RPM ratio (pull-down/input).
For the sequence “GATGATTGTTCTCCCAGCTGATGAATTTGGGTATTCGAGTAAACAAATTTTCCTAATCTTTCTGTTCAAGCGCCATCTAC”, the binding signal is 1.02 RPM ratio (pull-down/input).
“GATGATTGTTCTCCCAGCTGATGAATTGTACGACTCGAGTAAACAAATTTTCCTAATCTTTCTGTTCAAGCGCCATCTAC”: the binding signal is 0.905 RPM ratio (pull-down/input).
Turning to “GATGATTGTTCTCCCAGCTGATGAATTTATAGAATCGAGTAAACAAATTTTCCTAATCTTTCTGTTCAAGCGCCATCTAC”, the binding signal was 1.07 RPM ratio (pull-down/input).
Consider “GATGATTGTTCTCCCAGCTGATGAATTTTAAGCGTCGAGTAAACAAATTTTCCTAATCTTTCTGTTCAAGCGCCATCTAC”, for which the binding signal was 0.94 RPM ratio (pull-down/input).
Turning to “GATGATTGTTCTCCCAGCTGATGAATTAAATCTATCGAGTAAACAAATTTTCCTAATCTTTCTGTTCAAGCGCCATCTAC”, the binding signal is 0.922 RPM ratio (pull-down/input).
In the case of “GATGATTGTTCTCCCAGCTGATGAATTCATTTGCTCGAGTAAACAAATTTTCCTAATCTTTCTGTTCAAGCGCCATCTAC”, the binding signal is 1.05 RPM ratio (pull-down/input).
As for “GATGATTGTTCTCCCAGCTGATGAATTAAATACTTCGAGTAAACAAATTTTCCTAATCTTTCTGTTCAAGCGCCATCTAC”, the binding signal was 1.08 RPM ratio (pull-down/input).
With “GATGATTGTTCTCCCAGCTGATGAATTTGAGTTATCGAGTAAACAAATTTTCCTAATCTTTCTGTTCAAGCGCCATCTAC”, the binding signal was 1.04 RPM ratio (pull-down/input).
Take “GATGATTGTTCTCCCAGCTGATGAATTAGGACTGTCGAGTAAACAAATTTTCCTAATCTTTCTGTTCAAGCGCCATCTAC”: the binding signal is 0.849 RPM ratio (pull-down/input).
As for “GATGATTGTTCTCCCAGCTGATGAATTCAGTAGATCGAGTAAACAAATTTTCCTAATCTTTCTGTTCAAGCGCCATCTAC”, the figure is 0.911 RPM ratio (pull-down/input); as for “GATGATTGTTCTCCCAGCTGATGAATTGGACCGGTCGAGTAAACAAATTTTCCTAATCTTTCTGTTCAAGCGCCATCTAC”, 0.748 RPM ratio (pull-down/input).
Take “GATGATTGTTCTCCCAGCTGATGAATTATAACTCTCGAGTAAACAAATTTTCCTAATCTTTCTGTTCAAGCGCCATCTAC”: the binding signal was 1.03 RPM ratio (pull-down/input).
For “GATGATTGTTCTCCCAGCTGATGAATTTCTTCGGTCGAGTAAACAAATTTTCCTAATCTTTCTGTTCAAGCGCCATCTAC”, the binding signal was 0.814 RPM ratio (pull-down/input).
“GATGATTGTTCTCCCAGCTGATGAATTTAGTAGGTCGAGTAAACAAATTTTCCTAATCTTTCTGTTCAAGCGCCATCTAC”: the binding signal was 0.959 RPM ratio (pull-down/input).
With “GATGATTGTTCTCCCAGCTGATGAATTCTCTACGTCGAGTAAACAAATTTTCCTAATCTTTCTGTTCAAGCGCCATCTAC”, the binding signal is 0.829 RPM ratio (pull-down/input).
On to “GATGATTGTTCTCCCAGCTGATGAATTGGTTAGTTCGAGTAAACAAATTTTCCTAATCTTTCTGTTCAAGCGCCATCTAC”, for which the binding signal is 1 RPM ratio (pull-down/input).
Consider “GATGATTGTTCTCCCAGCTGATGAATTCTGTATCTCGAGTAAACAAATTTTCCTAATCTTTCTGTTCAAGCGCCATCTAC”, for which the binding signal was 1.03 RPM ratio (pull-down/input).
Take “GATGATTGTTCTCCCAGCTGATGAATTGAGTGACTCGAGTAAACAAATTTTCCTAATCTTTCTGTTCAAGCGCCATCTAC”: the binding signal is 0.833 RPM ratio (pull-down/input).
Take “GATGATTGTTCTCCCAGCTGATGAATTGCGCTGCTCGAGTAAACAAATTTTCCTAATCTTTCTGTTCAAGCGCCATCTAC”: the binding signal was 1.03 RPM ratio (pull-down/input).
In the case of “GATGATTGTTCTCCCAGCTGATGAATTTTGGAAATCGAGTAAACAAATTTTCCTAATCTTTCTGTTCAAGCGCCATCTAC” it was 0.986 RPM ratio (pull-down/input).
